In the supplement of paper PMC3334620:
Over roughly 33,000 sequences, “E-score (-0.5 to 0.5)” has its median near -0.032; the highest 2% begin near 0.36. The list shows a part of the results.

Each sequence was assayed against T1, Sko1 (UniProt Q02100) (assay: PBM E-score (8-mer binding enrichment) (E-score (-0.5 to 0.5)); higher = stronger / more preferred TF binding; most listed sequences are background and not binding sites). Conditions: protein concentration: 200 nM; construct: GST-full length.
T1 sequence: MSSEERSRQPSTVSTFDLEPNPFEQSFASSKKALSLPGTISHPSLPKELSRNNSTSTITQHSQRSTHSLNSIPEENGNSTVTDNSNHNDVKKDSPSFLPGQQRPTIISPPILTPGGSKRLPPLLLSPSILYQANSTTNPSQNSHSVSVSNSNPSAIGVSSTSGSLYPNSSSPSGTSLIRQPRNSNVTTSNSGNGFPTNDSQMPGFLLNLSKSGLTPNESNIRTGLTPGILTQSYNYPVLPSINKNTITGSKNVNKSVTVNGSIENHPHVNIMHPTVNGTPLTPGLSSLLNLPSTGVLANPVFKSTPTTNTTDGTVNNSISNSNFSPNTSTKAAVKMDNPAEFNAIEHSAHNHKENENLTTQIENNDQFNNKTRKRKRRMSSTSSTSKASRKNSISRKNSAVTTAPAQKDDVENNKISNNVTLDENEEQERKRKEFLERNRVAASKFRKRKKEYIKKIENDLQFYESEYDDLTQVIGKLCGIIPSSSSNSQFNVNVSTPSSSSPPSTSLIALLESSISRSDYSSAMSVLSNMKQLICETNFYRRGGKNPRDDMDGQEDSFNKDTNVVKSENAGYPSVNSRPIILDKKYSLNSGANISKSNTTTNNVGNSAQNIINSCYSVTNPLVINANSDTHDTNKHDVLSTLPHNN
Protocol: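 Universal 'all 10-mer' protein binding microarrays (Agilent AMADID 015681) probed with GST-tagged S. cerevisiae TFs (full-length or DBD) made by in vitro transcription/translation (PURExpress), about 100-200 nM. Bound TF was detected with fluorescent anti-GST. Each ungapped 8-mer (which stands for itself and its reverse complement) is scored by the PBM enrichment score (E-score), a modified Wilcoxon-Mann-Whitney statistic from -0.5 to +0.5, computed with the Universal PBM Analysis Suite. Scale: above 0.35 generally sequence-specific binding.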

| Sequence | PBM E-score |
| --- | --- |
| AGTTTCTC | 0.0779 |
| AAATGTAA | 0.268 |
| ACCATTTC | -0.0823 |
| CCCGTAAG | 0.16 |
| AACCCATC | -0.0434 |
| ATGGACAT | 0.0678 |
| GTAGTGTA | 0.0916 |
| CCTCTTTA | -0.0107 |
| GCTAAAGC | 0.0769 |
| CCTAGATC | -0.152 |
| ATTATTGG | 0.0249 |
| ACTCTGCA | -0.0947 |
| CGTACAGC | 0.173 |
| GCGAGCCA | -0.133 |
| CAGATCGG | -0.0654 |
| ATCACCTG | -0.164 |
| TAAGTGAA | -0.0196 |
| CGCCACCC | -0.226 |
| GGCAAGAC | -0.0442 |
| GACCCAAA | 0.159 |
| GTTATTCA | 0.241 |
| ATGCACTA | 0.0929 |
| AGCGATAT | 0.112 |
| GCCCTCCC | -0.207 |
| CCAATTGA | -0.125 |

| Sequence | PBM E-score |
| --- | --- |
| CAAAATAC | 0.199 |
| CGGTATAA | 0.0532 |
| AGGCCTAC | -0.0212 |
| ATATCCTG | -0.0296 |
| CGGTTAAC | 0.0142 |
| AACAGATT | 0.0462 |
| AAGCCGTG | -0.175 |
| CGGGTTTC | -0.0891 |
| CATCGTTA | -0.0268 |
| GACCTCAC | 0.0442 |
| CATTGTGG | -0.248 |
| ATTCATTA | 0.185 |
| TCCCAGCA | -0.208 |
| AAAACGCC | 0.0157 |
| GAGGGCCA | -0.282 |
| AGACTGGC | -0.23 |
| CTGTTGCA | -0.0821 |
| ACCTCTTC | -0.0962 |
| GCTATCTA | -0.138 |
| GGCTTACC | -0.304 |
| CTTCACTC | -0.094 |
| AAAACACT | 0.0948 |
| CGTTAAGC | 0.193 |
| CCAAGTAC | -0.0618 |
| AGGCCCTC | -0.274 |

| Sequence | PBM E-score |
| --- | --- |
| AACGAGAT | -0.0162 |
| AGAACGTC | 0.314 |
| GATTCTCA | 0.0391 |
| AGGGACGC | -0.0218 |
| ACCTGCGC | -0.192 |
| AGGCATCG | -0.0424 |
| AAGCTGTC | -0.0996 |
| GAGTCTGC | -0.218 |
| GAACGTAA | 0.428 |
| CCCTAACA | 0.0661 |
| CAGCCTTC | -0.239 |
| GTACTGGA | 0.194 |
| AGTCCCGC | -0.313 |
| ACGTTGGA | 0.247 |
| CACCTATA | 0.0337 |
| GACGGTAA | 0.0496 |
| AGACGTCG | 0.21 |
| ACAAAGGA | 0.0747 |
| CTCCAATA | -0.00438 |
| CAATTAGG | 0.127 |
| ATCGGCCG | -0.229 |
| GAAGCGAA | 0.116 |
| ACATTCGT | 0.267 |
| AGTATCGG | -0.172 |
| ATGATTAA | 0.271 |

| Sequence | PBM E-score |
| --- | --- |
| TCACACGA | 0.145 |
| ACAGACTG | -0.15 |
| GCCCTGAC | 0.0454 |
| TACACTGA | -0.0145 |
| GTAAAGAC | 0.127 |
| CCCTCAAA | -0.174 |
| CACTGAGC | -0.00114 |
| GTGAGAAC | -0.0909 |
| AGCAACCC | -0.00364 |
| AGGGATCA | -0.181 |
| ATTAATTC | 0.28 |
| AACGGGGT | -0.179 |
| AGAAAACA | 0.206 |
| CGGAAACC | -0.336 |
| ACAAATGC | 0.227 |
| AAAGGACA | -0.081 |
| GTCATGGA | 0.163 |
| TAGCCGCA | -0.188 |
| CAGGACAG | -0.281 |
| ATCAAATC | 0.123 |
| GAGGCCAA | -0.0813 |
| CCGATTAC | 0.0359 |
| AATTGAGA | 0.0849 |
| TACCACTA | 0.197 |
| AAGAAACA | 0.184 |

| Sequence | PBM E-score |
| --- | --- |
| GGGCACCC | -0.277 |
| ACCAGTAT | -0.227 |
| AATATCGT | 0.263 |
| GTAGACCA | -0.0147 |
| CGTTTCAA | 0.119 |
| ATTGGATA | 0.0738 |
| TGCTAACA | 0.0675 |
| ATCTTATG | 0.0516 |
| ACCTGGCA | -0.0795 |
| AAATTTCA | 0.0326 |
| ACTGGGTA | 0.0095 |
| AGGGCAGG | -0.323 |
| CGGGAGGA | -0.211 |
| GATGGCGA | 0.0644 |
| AGAATACA | 0.00326 |
| GAGACCAA | -0.0994 |
| CAATGACA | 0.229 |
| CTACAGCA | -0.0464 |
| ACTAAAAA | 0.119 |
| GCCTTTTA | 0.0198 |
| GATCTTCA | 0.00428 |
| AATTAAGA | 0.0436 |
| CTAGACAG | -0.298 |
| CGTTCTAG | -0.0071 |
| CTCGAAAG | -0.101 |

| Sequence | PBM E-score |
| --- | --- |
| ACTCCCAA | -0.188 |
| ACTAGTAC | 0.0236 |
| CGATCACA | 0.17 |
| GAGACATA | 0.00577 |
| GCATTCAA | -0.0759 |
| CCCTAATA | -0.0693 |
| GCTGTTGA | 0.0627 |
| GTGTGCAA | 0.22 |
| ACGATGAG | 0.124 |
| CGGACGCA | -0.121 |
| ATATTACG | 0.465 |
| CCACCCCA | 0.0839 |
| CATAAGTA | 0.0019 |
| AATGGTAA | 0.168 |
| CAAACTGA | -0.00112 |
| CGCCTGAG | -0.229 |
| GAAATAAA | 0.114 |
| ACACACCT | -0.00417 |
| CGACCGCG | -0.205 |
| GCACGGCC | -0.273 |
| ATGGGACA | -0.359 |
| CATTAGAA | 0.191 |
| ACTTACTC | -0.146 |
| ACTATGAT | 0.167 |
| ACATTAGC | 0.124 |

| Sequence | PBM E-score |
| --- | --- |
| CGCCTCGC | -0.116 |
| CGCCCGTA | -0.285 |
| AATGATCG | 0.0428 |
| ATTTATAG | 0.158 |
| ACCACGAG | -0.163 |
| AGCTTGTC | 0.00999 |
| AGAAGCTC | -0.203 |
| CATAAGAG | -0.0273 |
| AACGGTGG | -0.346 |
| GGAGTGCC | -0.334 |
| AGAGAGGG | -0.318 |
| CATGCAGC | -0.0595 |
| AAAGCTGC | 0.0278 |
| ATGCCTCG | 0.142 |
| ACCGGGCA | -0.356 |
| GTCAATCA | 0.196 |
| AAATGTCT | 0.0489 |
| AATGAGCC | -0.308 |
| ATCTTCCC | -0.0771 |
| CCAAGATC | -0.101 |
| AACCGATG | -0.206 |
| GCCCGACA | -0.0508 |
